Reference: PubChem BioAssay AID743279 (National Center for Advancing Translational Sciences (NCATS), 2014)
Screen size: about 360,000 compounds; about 17,000 (4.7%) were called active. This list was built around the results that the source calls inconclusive (neither active nor inactive); the mix of calls is not that of the screen. Cut-off read from the data, not from the text of the source: active = activity change below about -50%; inconclusive = mostly about -30% to -49%; inactive = weaker than that.

Test: qHTS for Inhibitors of Inflammasome Signaling: IL-1-beta AlphaLISA Primary Screen
Details: THP-1 LPS/ATP IL-1B secretion, 16 h; at 57.5 µM, hits give low values
Summary of the method: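 Secreted IL-1B measured by AlphaLISA bead assay after 16 h compound exposure of THP-1 cells; compounds (final up to 57.5 uM) added 1 h before LPS (250 ng/mL) and ATP (1.25 mM) stimulation; lower signal means less secretion.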
% is set by controls: 0 for no effect and ±100 for the full control effect.

Question: Which activity change does the source give for `Nc1ccc2nc(CCCCCCCCc3nc4ccc(N)cc4[nH]3)[nH]c2c1` here?
Answer: inconclusive: -41.8%

Question: Which activity change does the source give for `CN(C)CCCN(C(=O)c1ccc(C(=O)c2ccccc2)cc1)c1nc2c(F)cccc2s1` here?
Answer: inconclusive: -40.8%

Question: With `O=C(NC1CCSc2ccccc21)c1ccc(F)cc1` (stereo not given) as the molecule, how does the activity change read?
Answer: inactive: -2.56%

Question: For `O=C(c1cc(COc2cccc(C(F)(F)F)c2)on1)N1C[C@@H]2CCC[C@H]1C2`, which activity change is on record?
Answer: inconclusive: -43.6%

Question: For `COc1cc2c(cc1OC)CN(c1ccc(C(F)(F)F)cn1)CC2`, which activity change is on record?
Answer: active: -90%

Question: Which activity change does the source give for `CCN(C(=O)COC(=O)/C=C/c1ccc(S(=O)(=O)N2CCc3ccccc32)cc1)C1CCS(=O)(=O)C1` (stereo not given) here?
Answer: inconclusive: -45%

Question: With `CCOc1ccc2nc3c(cc2c1)CN(CCOC)C(=NCCOC)S3` as the molecule, how does the activity change read?
Answer: inconclusive: -32.5%

Question: Which activity change does the source give for `Cc1ccc(NC(=O)c2cc(S(=O)(=O)N3CCCCC3)cs2)cc1` here?
Answer: active: -73.4%

Question: For `O=C(Nc1ccnn1C1CCN(CCCC2CCCC2)CC1)c1ccccc1`, which activity change is on record?
Answer: inconclusive: -47%

Question: Which activity change does the source give for `O=C(NCCN1C(=O)S/C(=C/c2cccnc2)C1=O)c1cccs1` here?
Answer: inconclusive: -35.7%

Question: For `CCOc1ccc(-c2cn(-c3ccc(OC)cc3)c(SC)n2)cc1`, which activity change is on record?
Answer: inconclusive: -48.5%

Question: Which activity change does the source give for `CC1CCN(c2c(NCC3CCC(C(=O)NCc4ccccc4Cl)CC3)c(=O)c2=O)CC1` (stereo not given) here?
Answer: inactive: -19.5%

Question: With `Cc1cc2nc(CN(C)C(=O)C3CCC(=O)N(C4CCCC4)C3)[nH]c2cc1C` (stereo not given) as the molecule, how does the activity change read?
Answer: inactive: -9.69%

Question: For `CC(C)(C)c1csc(N/N=C/c2cccnc2)n1`, which activity change is on record?
Answer: active: -98.9%

Question: For `CN(C)/C=C/c1c([N+](=O)[O-])c2ccc(O)cc2n1-c1ccccc1`, which activity change is on record?
Answer: active: -85.7%

Question: Which activity change does the source give for `CC(=O)c1ccc(S(=O)(=O)N2CCN(c3nc4c(C)c(C)ccc4cc3C#N)CC2)cc1` here?
Answer: inconclusive: -41.6%

Question: For `O=c1c(Cl)c(NCCCO)cnn1-c1nc2ccccc2[nH]1`, which activity change is on record?
Answer: active: -117%

Question: Which activity change does the source give for `CCn1cc(C(=O)OCC(=O)c2cc(C)n(-c3ccccc3F)c2C)c(=O)c2ccc(C)nc21` here?
Answer: inconclusive: -34.6%

Question: For `OC1(c2ccc(Br)cc2)CCNCC1`, which activity change is on record?
Answer: inconclusive: -45.8%

Question: With `CC(c1nccs1)N(C)C(=O)CCc1nnc(-c2ccc(-c3ccccc3)cc2)o1` (stereo not given) as the molecule, how does the activity change read?
Answer: inconclusive: -34.3%

Question: Which activity change does the source give for `CC(C)(C)c1sc(N)nc1-c1ccccc1` here?
Answer: active: -102%

Question: With `Cc1ccc(OCc2cc(C(=O)NC3CCOC3)no2)cc1C` (stereo not given) as the molecule, how does the activity change read?
Answer: inactive: 5.92%

Question: Which activity change does the source give for `O=C(CN1C(=O)/C(=C\c2ccccc2Cl)Sc2ccccc21)NCCCN1CCOCC1` here?
Answer: inconclusive: -41%

Question: For `O=S(=O)(c1ccccc1F)N(Cc1ccco1)Cc1nnc(-c2ccccc2Br)o1`, which activity change is on record?
Answer: inactive: -2.26%

Question: For `CCOC(=O)C1CCN(C2CCN(C(=O)c3oc4c(C)c(C)ccc4c3C)CC2)CC1`, which activity change is on record?
Answer: inconclusive: -32.6%

Question: For `COc1ccc(-c2nn(-c3ccccc3)cc2/C=C/C(=O)N2CCN(c3ccccn3)CC2)cc1`, which activity change is on record?
Answer: inconclusive: -47.9%

Question: Which activity change does the source give for `O=C(Cc1c[nH]c2ccccc12)NC1(C(=O)NC2CCCC2)CCCCC1` here?
Answer: inactive: 9.11%

Question: With `CCc1csc(CNC(=O)C2CCC(=O)N(Cc3cccc(OC)c3)C2)n1` (stereo not given) as the molecule, how does the activity change read?
Answer: inconclusive: -35.4%

Question: For `COCc1c(C(=O)N/N=C(/C)c2ccc(OCc3ccccc3)cc2)nnn1-c1nonc1N`, which activity change is on record?
Answer: inconclusive: -33.3%

Question: Which activity change does the source give for `CC(C)(C)N=C1NN=C(c2ccc(Cl)cc2)CS1` here?
Answer: inactive: -0.975%

Question: Which activity change does the source give for `CC1(c2ccccc2)NC(=O)N(CC(=O)Nc2cc(C(F)(F)F)ccc2N2CCCCC2)C1=O` (stereo not given) here?
Answer: inconclusive: -39.2%

Question: For `CN1CCN(CCC(=O)N/N=C/c2ccccc2F)CC1`, which activity change is on record?
Answer: inactive: 3.1%

Question: Which activity change does the source give for `CN1CCN(CC2(O)CCN(S(=O)(=O)c3ccc(Cl)cc3)CC2)CC1` here?
Answer: inactive: -6.58%

Question: Which activity change does the source give for `CCn1c2ccccc2c2cc(NC(=O)CN(C)CC(=O)Nc3ccc(N4CCOCC4)cc3)ccc21` here?
Answer: inconclusive: -31.9%

Question: With `Cc1ccc(S(=O)(=O)CCC(=O)OCC(=O)N2CC(=O)Nc3ccccc32)cc1` as the molecule, how does the activity change read?
Answer: inactive: -7.59%

Question: For `COc1ccc(CN(C)C(=O)c2cccc(NC(=O)CC3SC(N4CCCCC4)=NC3=O)c2)c(OC)c1` (stereo not given), which activity change is on record?
Answer: active: -54.9%

Question: Which activity change does the source give for `Cc1cc([N+](=O)[O-])ccc1NC(=O)CN1CCN(Cc2ccccc2)CC1` here?
Answer: inconclusive: -32.4%

Question: Which activity change does the source give for `CCOc1ccccc1C1C(C#N)=C(N)Oc2n[nH]c(CC)c21` (stereo not given) here?
Answer: inconclusive: -40.4%

Question: For `CCCCn1c(=O)[nH]c(=O)c2c1nc(-c1ccccc1F)n2Cc1ccccc1OC`, which activity change is on record?
Answer: inactive: 7.95%

Question: With `O=C(Nc1ccc2[nH]ncc2c1)c1ccc(F)cc1` as the molecule, how does the activity change read?
Answer: inconclusive: -36.1%

Question: With `C=CCn1cc(/C=N/NC(=O)COc2cccc3cccnc23)c2ccccc21` as the molecule, how does the activity change read?
Answer: inactive: -13.6%

Question: Which activity change does the source give for `COC(=O)[C@]12CCCCC=C1N(Cc1cccc3ccccc13)C(=O)[C@H](CC(=O)NCc1cccc(C(F)(F)F)c1)C2` here?
Answer: active: -73.1%

Question: With `CCCC1=C(C(=O)OCC)C(c2cc(Cl)cc(OC)c2OCc2ccccc2)NC(=O)N1` (stereo not given) as the molecule, how does the activity change read?
Answer: inconclusive: -33.9%

Question: Which activity change does the source give for `COc1ccc2cc3cc(C(=O)NCc4cccnc4)oc3nc2c1` here?
Answer: inconclusive: -41.9%

Question: For `N=c1sccn1CC(=O)NC(c1ccccc1)c1ccccc1`, which activity change is on record?
Answer: active: -52%

Question: For `Cc1ccc(-c2nc(NCCCN(C)C)c3ccccc3n2)cc1`, which activity change is on record?
Answer: inconclusive: -30.1%

Question: With `CCN(CC)C(=O)c1nn(-c2ccccc2)c2c1C1CCC2(C)C1(C)C` (stereo not given) as the molecule, how does the activity change read?
Answer: inconclusive: -31.9%

Question: Which activity change does the source give for `O=C(NC1CCCCC1)c1cccc(S(=O)(=O)N2CCCCC2)c1` here?
Answer: inconclusive: -39.8%

Question: With `CC1CCc2c(sc(NC(=O)/C=C/c3cccs3)c2C(=O)O)C1` (stereo not given) as the molecule, how does the activity change read?
Answer: inconclusive: -45.1%

Question: Which activity change does the source give for `Cc1nonc1NC(=O)CSc1nc(C2CCCCC2)nc2ccccc12` here?
Answer: active: -73.6%

Question: For `CC(=O)Nc1nc(C)c(CCCOc2ccc([N+](=O)[O-])cc2)c(=O)[nH]1`, which activity change is on record?
Answer: inconclusive: -32.7%

Question: Which activity change does the source give for `Cn1cc(CN2CCN(CC(C)(C)C)C(CCO)C2)c2ccccc21` (stereo not given) here?
Answer: inconclusive: -30.1%

Question: Which activity change does the source give for `CCN(CC)C(=O)COC(=O)c1cc(-c2ccco2)nc2ccccc12` here?
Answer: inactive: 13.7%

Question: Which activity change does the source give for `COc1ccc(C2c3ccc(O)cc3Oc3ncn(CCN4CCOCC4)c(=N)c32)cc1OC` (stereo not given) here?
Answer: inconclusive: -39.2%

Question: For `C#CCN(C[C@@H]1[C@@H](OC(=O)NCc2ccccc2F)[C@@H](OC(=O)NCc2ccccc2F)Cn2c(=O)n(CCCCCC)c(=O)n21)S(=O)(=O)c1ccc(C)cc1`, which activity change is on record?
Answer: inconclusive: -32%

Question: With `COc1ccc(-c2csc3ncnc(NCCO)c23)cc1` as the molecule, how does the activity change read?
Answer: active: -81.5%

Question: Which activity change does the source give for `O=C(NCCN1CCOCC1)/C(=C/c1ccc(Cl)cc1)NC(=O)c1ccccc1` here?
Answer: inconclusive: -31.8%

Question: Which activity change does the source give for `CCOC(=O)c1c(NC(=O)COC(=O)/C=C/c2ccco2)sc2c1CC(C)(C)NC2(C)C` here?
Answer: active: -68.2%

Question: With `COc1cn(-c2ccccc2)nc1C(=O)NCc1ccccc1` as the molecule, how does the activity change read?
Answer: inconclusive: -42.6%

Question: With `Cc1ccccc1NC(C)C(=O)N/N=C/c1ccccc1OCc1cccc(Br)c1` (stereo not given) as the molecule, how does the activity change read?
Answer: inconclusive: -47%

Question: Which activity change does the source give for `CNC(=O)COC(=O)C1CCN(S(=O)(=O)c2ccc3c(c2)OCCO3)CC1` here?
Answer: inactive: 13.9%

Question: For `Cc1c(Br)cccc1NC(=O)c1sccc1-n1cccc1`, which activity change is on record?
Answer: inconclusive: -40.5%

Question: Which activity change does the source give for `O=C(Nc1ccccc1C(=O)Nc1ccc(Br)cn1)c1ccccc1Cl` here?
Answer: inconclusive: -43.6%

Question: Which activity change does the source give for `COc1ccc(CCNC(=O)[C@@H](NC(=O)c2ccccc2F)C(C)C)cc1OC` here?
Answer: inactive: 35.2%

Question: Which activity change does the source give for `O=C(OCc1ccccc1F)c1ccc2c(c1)-c1ccccc1C2=O` here?
Answer: inconclusive: -41.5%

Question: With `Cc1cc(OCC(=O)OCC(=O)N2CCCCC2)ccc1Cl` as the molecule, how does the activity change read?
Answer: inactive: 20.4%

Question: Which activity change does the source give for `COc1ccc(NC(=O)NNC(=O)COc2ccc3cc(Br)ccc3c2)c(OC)c1` here?
Answer: inactive: 14.7%

Question: For `CCCC1OC2CC3C4CCC5=CC(=O)C=CC5(C)C4C(O)CC3(C)C2(C(=O)O)O1` (stereo not given), which activity change is on record?
Answer: inconclusive: -40.3%

Question: With `CCOC(=O)c1c(C)n(C)c2ccc(OCC(O)CNC(CC)CO)cc12` (stereo not given) as the molecule, how does the activity change read?
Answer: inconclusive: -36.4%

Question: For `CCN(C(=O)c1cnc(N2CCN(c3ncccn3)CC2)c2ccccc12)c1cccc(Cl)c1`, which activity change is on record?
Answer: active: -64.9%

Question: For `CCCCN1C(=O)C2ON(c3ccccc3C)C(c3ccco3)C2C1=O` (stereo not given), which activity change is on record?
Answer: inconclusive: -47.1%

Question: With `COc1ccc(CCC(=O)NCC2CCCCC2)cc1OC` as the molecule, how does the activity change read?
Answer: inactive: 25.9%

Question: For `C=CCOc1ccc(/C=C2/C(=O)ON=C2C)cc1OCC`, which activity change is on record?
Answer: active: -98.7%

Question: For `CCCn1nnnc1-c1ccc(Cl)cc1`, which activity change is on record?
Answer: inactive: 6.91%

Question: Which activity change does the source give for `CN1C(=O)C(CC(=O)NCC2CCCCC2)SC1=Nc1ccccc1` (stereo not given) here?
Answer: inconclusive: -36.6%

Question: With `COc1cccc(NC(=O)c2ccc(C(=O)c3ccccc3)o2)c1` as the molecule, how does the activity change read?
Answer: inconclusive: -48.1%

Question: Which activity change does the source give for `COCCN1C[C@@H](CO)O[C@@H](n2cnc3c(N4CCN(CCO)CC4)ncnc32)C1` here?
Answer: inactive: 10.4%

Question: Which activity change does the source give for `CCN(CC)C(=O)c1cccc(-c2csc(C(C)(O)c3ccncc3)n2)c1` (stereo not given) here?
Answer: inactive: -1.05%

Question: Which activity change does the source give for `O=C(Nc1ccccc1Cl)c1c(F)c(F)c(F)c(F)c1F` here?
Answer: inconclusive: -37.7%

Question: Which activity change does the source give for `COc1cccc(-c2csc(N3CCN(C(=S)Nc4cccc(C)c4)CC3)n2)c1` here?
Answer: inconclusive: -43.6%

Question: With `Cc1cc(C)c(-c2csc(NC(=O)C3=COCCO3)n2)c(C)c1` as the molecule, how does the activity change read?
Answer: inconclusive: -40.6%

Question: With `OC(CNCc1ccc(Cl)c(Cl)c1)c1ccccc1` (stereo not given) as the molecule, how does the activity change read?
Answer: active: -69.4%

Question: For `C[C@H](CO)N1C[C@H](C)[C@@H](CN(C)S(=O)(=O)c2cccs2)Oc2ccc(NC(=O)Nc3ccc4c(c3)OCO4)cc2C1=O`, which activity change is on record?
Answer: inconclusive: -30.4%

Question: For `COCCN(Cc1ccccc1)C(=O)c1cc(S(=O)(=O)N2CCCCCC2)ccc1OC`, which activity change is on record?
Answer: inactive: -11.1%

Question: Which activity change does the source give for `CC(C)c1ccc2nc(NC(=O)C3CC3)sc2c1` here?
Answer: active: -57.3%
